{"source": "IntAct's records for PubMed 31515488", "parents": {"B1": {"name": "Myeloid differentiation primary response protein MyD88 (Homo sapiens), Q99836 (parent)", "chain": "MAAGGPGAGSAAPVSSTSSLPLAALNMRVRRRLSLFLNVRTQVAADWTALAEEMDFEYLEIRQLETQADPTGRLLDAWQGRPGASVGRLLELLTKLGRDDVLLELGPSIEEDCQKYILKQQQEEAEKPLQVAAVDSSVPRTAELAGITTLDDPLGHMPERFDAFICYCPSDIQFVQEMIRQLEQTNYRLKLCVSDRDVLPGTCVWSIASELIEKRCRRMVVVVSDDYLQSKECDFQTKFALSLSPGAHQKRLIPIKYKAMKKEFPSILRFITVCDYTNPCTKSWFWTRLAKALSLP", "partner": "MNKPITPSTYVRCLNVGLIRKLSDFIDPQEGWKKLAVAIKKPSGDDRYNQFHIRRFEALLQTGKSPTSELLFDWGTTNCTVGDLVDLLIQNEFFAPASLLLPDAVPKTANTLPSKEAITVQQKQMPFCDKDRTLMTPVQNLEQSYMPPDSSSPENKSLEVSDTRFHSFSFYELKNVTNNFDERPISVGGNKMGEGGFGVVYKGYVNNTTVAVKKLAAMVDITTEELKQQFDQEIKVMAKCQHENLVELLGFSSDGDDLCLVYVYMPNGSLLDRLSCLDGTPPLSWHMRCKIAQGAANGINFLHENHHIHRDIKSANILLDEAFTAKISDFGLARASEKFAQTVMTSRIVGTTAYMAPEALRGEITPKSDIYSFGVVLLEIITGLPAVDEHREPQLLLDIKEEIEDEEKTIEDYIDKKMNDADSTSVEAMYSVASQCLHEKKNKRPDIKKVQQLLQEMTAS"}, "B2": {"name": "Cytoplasmic dynein 1 light intermediate chain 1 (Homo sapiens), Q9Y6G9 (parent)", "chain": "MAAVGRVGSFGSSPPGLSSTYTGGPLGNEIASGNGGAAAGDDEDGQNLWSCILSEVSTRSRSKLPAGKNVLLLGEDGAGKTSLIRKIQGIEEYKKGRGLEYLYLNVHDEDRDDQTRCNVWILDGDLYHKGLLKFSLDAVSLKDTLVMLVVDMSKPWTALDSLQKWASVVREHVDKLKIPPEEMKQMEQKLIRDFQEYVEPGEDFPASPQRRNTASQEDKDDSVVLPLGADTLTHNLGIPVLVVCTKCDAISVLEKEHDYRDEHFDFIQSHIRKFCLQYGAALIYTSVKENKNIDLVYKYIVQKLYGFPYKIPAVVVEKDAVFIPAGWDNDKKIGILHENFQTLKAEDNFEDIITKPPVRKFVHEKEIMAEDDQVFLMKLQSLLAKQPPTAAGRPVDASPRVPGGSPRTPNRSVSSNVASVSPIPAGSKKIDPNMKAGATSEGVLANFFNSLLSKKTGSPGGPGVSGGSPAGGAGGGSSGLPPSTKKSGQKPVLDVHAELDRITRKPVTVSPTTPTSPTEGEAS", "partner": "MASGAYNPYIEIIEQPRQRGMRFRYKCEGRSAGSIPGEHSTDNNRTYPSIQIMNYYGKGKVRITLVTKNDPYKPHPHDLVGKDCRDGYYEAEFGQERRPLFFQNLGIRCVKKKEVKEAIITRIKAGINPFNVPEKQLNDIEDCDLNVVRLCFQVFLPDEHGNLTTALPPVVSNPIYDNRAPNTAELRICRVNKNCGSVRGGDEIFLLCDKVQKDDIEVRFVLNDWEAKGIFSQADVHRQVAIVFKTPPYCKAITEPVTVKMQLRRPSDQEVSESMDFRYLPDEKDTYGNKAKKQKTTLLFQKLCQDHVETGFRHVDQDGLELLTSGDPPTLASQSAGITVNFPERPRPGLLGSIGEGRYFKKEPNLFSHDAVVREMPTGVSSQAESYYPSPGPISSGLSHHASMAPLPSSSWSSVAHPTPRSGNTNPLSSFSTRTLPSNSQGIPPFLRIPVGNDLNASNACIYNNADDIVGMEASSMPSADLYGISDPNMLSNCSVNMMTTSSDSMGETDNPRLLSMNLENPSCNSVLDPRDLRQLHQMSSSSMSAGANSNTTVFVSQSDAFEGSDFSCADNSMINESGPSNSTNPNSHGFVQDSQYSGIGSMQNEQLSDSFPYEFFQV"}, "B3": {"name": "Properdin (Homo sapiens), P27918 (parent)", "chain": "MITEGAQAPRLLLPPLLLLLTLPATGSDPVLCFTQYEESSGKCKGLLGGGVSVEDCCLNTAFAYQKRSGGLCQPCRSPRWSLWSTWAPCSVTCSEGSQLRYRRCVGWNGQCSGKVAPGTLEWQLQACEDQQCCPEMGGWSGWGPWEPCSVTCSKGTRTRRRACNHPAPKCGGHCPGQAQESEACDTQQVCPTHGAWATWGPWTPCSASCHGGPHEPKETRSRKCSAPEPSQKPPGKPCPGLAYEQRRCTGLPPCPVAGGWGPWGPVSPCPVTCGLGQTMEQRTCNHPVPQHGGPFCAGDATRTHICNTAVPCPVDGEWDSWGEWSPCIRRNMKSISCQEIPGQQSRGRTCRGRKFDGHRCAGQQQDIRHCYSIQHCPLKGSWSEWSTWGLCMPPCGPNPTRARQRLCTPLLPKYPPTVSMVEGQGEKNVTFWGRPLPRCEELQGQKLVVEEKRPCLHVPACKDPEEEEL", "partner": "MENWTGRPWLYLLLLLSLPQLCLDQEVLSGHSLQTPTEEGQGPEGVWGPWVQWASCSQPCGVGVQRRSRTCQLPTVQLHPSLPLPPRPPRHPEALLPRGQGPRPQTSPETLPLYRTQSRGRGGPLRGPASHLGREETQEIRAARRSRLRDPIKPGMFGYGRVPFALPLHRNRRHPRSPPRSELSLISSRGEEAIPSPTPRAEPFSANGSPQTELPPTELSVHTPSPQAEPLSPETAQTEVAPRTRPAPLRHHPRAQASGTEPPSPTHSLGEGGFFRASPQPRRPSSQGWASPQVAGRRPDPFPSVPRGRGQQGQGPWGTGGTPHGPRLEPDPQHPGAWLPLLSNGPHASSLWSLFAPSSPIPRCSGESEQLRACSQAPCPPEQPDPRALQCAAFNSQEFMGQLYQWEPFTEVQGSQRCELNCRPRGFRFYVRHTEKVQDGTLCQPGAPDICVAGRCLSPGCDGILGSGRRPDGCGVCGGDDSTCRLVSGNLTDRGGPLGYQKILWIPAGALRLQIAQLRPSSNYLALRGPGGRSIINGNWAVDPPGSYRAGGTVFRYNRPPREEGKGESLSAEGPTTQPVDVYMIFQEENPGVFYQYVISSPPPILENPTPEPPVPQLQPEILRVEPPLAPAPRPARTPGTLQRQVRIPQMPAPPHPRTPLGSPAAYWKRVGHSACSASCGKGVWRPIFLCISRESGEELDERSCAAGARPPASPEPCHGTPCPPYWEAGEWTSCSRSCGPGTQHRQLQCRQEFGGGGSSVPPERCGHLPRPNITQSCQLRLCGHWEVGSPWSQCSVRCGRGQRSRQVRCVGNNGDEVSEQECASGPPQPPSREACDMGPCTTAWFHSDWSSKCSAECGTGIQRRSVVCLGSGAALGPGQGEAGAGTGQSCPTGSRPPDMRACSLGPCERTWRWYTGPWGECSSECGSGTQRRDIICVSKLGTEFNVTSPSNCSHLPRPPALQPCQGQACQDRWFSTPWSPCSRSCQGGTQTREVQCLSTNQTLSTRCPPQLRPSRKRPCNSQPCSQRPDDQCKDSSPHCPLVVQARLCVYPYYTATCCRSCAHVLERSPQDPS"}}, "data": [{"variants_of": "B1", "conditions": "with irak4_human IRAK4, Q9NWZ3", "values": [{"variant": "L93P", "effect of a mutation on the interaction": "disrupting interaction strength"}, {"variant": "R196C", "effect of a mutation on the interaction": "disrupting interaction strength"}]}, {"variants_of": "B2", "conditions": "with rel_human REL", "values": [{"variant": "Q277R", "effect of a mutation on the interaction": "disrupting interaction strength"}, {"variant": "V146A", "effect of a mutation on the interaction": "with no effect"}]}, {"variants_of": "B3", "conditions": "with atl4_human ADAMTSL4, Q6UY14", "values": [{"variant": "P409L", "effect of a mutation on the interaction": "with no effect"}, {"variant": "M420T", "effect of a mutation on the interaction": "with no effect"}]}]}
